Laboratory results: the supplement of paper PMC10126150
Values marked as one replicate rest on one cluster of the flow cell; about a third of the high ones do not repeat.

system: ATP; assay: switch fluorescence ratio, 500 uM ATP over buffer (Cy3 cluster intensity, sum of 5 cycles each) (fold (ratio)); higher = stronger signal-on switching upon ATP binding; sequences stand for … in TCGTCGGCAGCGTCAGATGTGTATAAGAGACAGTTTTTTTTTTTTTTTTTTTTTTTTT…TC; details: aptamer strand: ATP DNA aptamer (quencher-CACCTGGGGGAGTATTGCGGAGGAAGG + anchor), 100 nM annealed; ATP concentration: 500 uM; one replicate
How it was run: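 After annealing to 100 nM quencher-labelled ATP aptamer, Cy3-labelled switching-strand clusters on a modified Illumina MiSeq flow-cell were imaged in selection buffer. A second image followed after 15 min with 500 uM ATP at 22 °C, and five such buffer/ATP cycles were done, each separated by NaOH stripping and re-annealing. The fluorescence ratio, averaged per switch-domain sequence, is summed target-cycle over summed buffer-cycle Cy3 intensity per cluster, with clusters outside 100-1000 RFU excluded.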
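Also: ATP exposure 15 min at 22 °C before imaging.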

| Sequence | switch fluorescence ratio |
| --- | --- |
| TTTGAGTTGC | 1.02 |
| AGTGCAATTC | 3.56 |
| GTGTGCGGAG | 0.951 |
| GGTGCTTTAT | 1.04 |
| CGCTAGCCAT | 1.03 |
| TCTTCACACC | 1.15 |
| GGATTTCACG | 0.987 |
| GCAGTGGCCA | 1.02 |
| CTAGGGGAG | 0.983 |
| CAACACAGCG | 1.04 |
| GACTTGGACG | 0.989 |
| TCAAAAGGGT | 0.997 |
| GGGGGCACC | 1.01 |
| CAAGTAAGGG | 1 |
| GTATGGTGTC | 0.986 |
| TCTCGTAGTT | 1.03 |
| AAAACAAGCG | 1.05 |
| ATGGCTTCCG | 1.13 |
| CAGTCTAAAA | 1.02 |
| AGGGAAGCCC | 1.05 |
| AAGAGATAGC | 1.11 |
| TTTTTGTCTC | 1 |
| TCCAGCCGAC | 1.3 |

| Sequence | switch fluorescence ratio |
| --- | --- |
| GACCTTAGCA | 1.15 |
| TTGGCATGAC | 1.07 |
| CAAAGAGGTG | 1.09 |
| GCAACGACAC | 2.18 |
| GGGTGTAAGC | 0.942 |
| ATGATGAAAG | 0.978 |
| AGGTCCAGCA | 1.06 |
| AAGTCTGCGC | 1 |
| TTGCTACAAT | 0.962 |
| GTTTGTTCTC | 1.03 |
| TTGATGTA | 0.951 |
| AAACAATTGT | 1.01 |
| TTTCAAAGCT | 1.14 |
| AATTCGTGGG | 0.961 |
| TGGGGGCG | 1 |
| CTTCAGGATG | 1.01 |
| CAGATTACTA | 1.01 |
| CCGATAGTTT | 1.44 |
| GACTTTTCAG | 1.03 |
| ATCATGAAAC | 1 |
| GAACAACTGA | 0.965 |
| GATTAATTGG | 0.975 |
| TCACCACCGA | 1.11 |

| Sequence | switch fluorescence ratio |
| --- | --- |
| GGGTCATCGC | 1.01 |
| AAAATAAAT | 0.99 |
| GGGAATCGCG | 0.99 |
| GGGGAATATA | 0.996 |
| GTACTCAACC | 1.22 |
| CAGTCGCATC | 1.75 |
| AAACTACGTA | 1.21 |
| TCCTATTTAG | 1 |
| TCAGGGTTCA | 0.977 |
| TGAACAGCTT | 0.99 |
| CATTATATAT | 1.02 |
| CTACGGTGGT | 1 |
| TTCACTTTGT | 0.95 |
| GAGCTATCGG | 1.02 |
| TCGTGGATGC | 1.03 |
| TGGCGATGAA | 0.969 |
| GGGGCGAGTA | 0.991 |
| GCGATACTTC | 4.35 |
| TTAAAGGAG | 0.972 |
| GAGAACTTAG | 1 |
| CGGAACCCTT | 1 |
| ACGGTTTTT | 1.01 |
| CTGAAAGGCA | 1.03 |

| Sequence | switch fluorescence ratio |
| --- | --- |
| TTACTATTAA | 1.06 |
| GTGTTATAG | 1.02 |
| GGCGGCGGCG | 0.973 |
| CTGACATGAC | 1.47 |
| TGGTGGG | 1.03 |
| TAGTCGATAC | 3.21 |
| GGCGGTTTCG | 0.99 |
| TCCGTTTGCC | 0.964 |
| CGGCAGCGAA | 1.05 |
| CATCTCACGG | 0.995 |
| GGGGTTAAT | 1.01 |
| GCTAAAGTTT | 0.983 |
| GAACAGGTTT | 1 |
| CGACGGTGCT | 1.22 |
| TAAGGATCTT | 1 |
| ACATGACAA | 1.14 |
| TGAGCCCAGA | 1.03 |
| ATTGTGGGAT | 0.964 |
| ATATTACTTG | 1.01 |
| ACGCTAGATC | 1.03 |
| GGTATAGTGG | 0.931 |
| AGATTACTCT | 0.973 |
| CATACCCATG | 0.98 |

| Sequence | switch fluorescence ratio |
| --- | --- |
| GCGTGCCCTA | 1.01 |
| GTTTGCAGAA | 1.02 |
| ACCAGGTCGG | 1.2 |
| CATATATGAG | 1.02 |
| TATATGCTTA | 0.974 |
| CGTTTTCGTC | 0.912 |
| GCATACTTAA | 1.05 |
| CCAGCGCTGA | 1.04 |
| GGCGTCATAT | 0.979 |
| GCAGTTCTCT | 1.03 |
| TTGACTTGTA | 0.991 |
| TTGGCTGATC | 0.961 |
| CTGTATAGG | 0.992 |
| CGGGTATGAG | 0.95 |
| TGGCTTAGA | 0.97 |
| CAGCTGGACA | 1.03 |
| CGACCTACTC | 2.5 |
| GTCAGTTTCA | 0.967 |
| GATTTCACCG | 1.01 |
| ACCCACCGTC | 1.38 |
| GGCTAAGATT | 0.994 |
| GACTGGTTAA | 1.01 |
| ACGCCCGGCA | 1.08 |

| Sequence | switch fluorescence ratio |
| --- | --- |
| CGTCAATTGT | 1.05 |
| CACATTGGCA | 1.01 |
| AAATGAGCGA | 0.977 |
| CCCTGTTAGA | 1 |
| AACTTGAGGA | 0.962 |
| TCAACATTGT | 0.997 |
| CTCTGTCTTA | 1.01 |
| CCTGGAATTA | 2.42 |
| TGCGATGAAC | 1.19 |
| ACTACCGTTA | 1.17 |
| ACTGTGCGTC | 1.02 |
| GGCAAACCTT | 2.83 |
| TTGCTAATTT | 1 |
| TAGTAGGGTC | 0.989 |
| CTGGGTAGGA | 0.988 |
| GGTGCGAGGG | 1.11 |
| TTAATGGGAG | 0.978 |
| TCATGTATCC | 0.985 |
| GAATTTGTAG | 1.03 |
| AAAGATAGCG | 0.987 |
| TCGTTACAAA | 1.02 |
| GGCGACATTT | 1.04 |
| CTAGTAACGT | 1.01 |

| Sequence | switch fluorescence ratio |
| --- | --- |
| AGAGAGTCTT | 0.956 |
| ATTACCCGGG | 1.05 |
| TTAAATCGTC | 0.96 |
| TCGGTTACCT | 1.14 |
| CATTATAGTA | 0.985 |
| TTGGCTGGAA | 0.995 |
| GAAGTCATGT | 0.992 |
| AACTTGTGAA | 1.03 |
| GCAGGTCGCT | 1.04 |
| GTGTACGATC | 1.09 |
| TAATCGCGA | 1.02 |
| AATTGGACTG | 1.12 |
| CCACTGGAAT | 1.25 |
| GTAGGTTCGC | 0.999 |
| ACTGTTGGAC | 1.02 |
| TCGTTCCCAA | 1.03 |
| TCTTCTACAA | 1.28 |
| GTGTCGTGTG | 1.04 |
| AATTGGTTAC | 1.06 |
